Results published in PubChem BioAssay AID1508642 (National Center for Advancing Translational Sciences (NCATS), 2021).
About 200 (0.47%) of roughly 43,000 compounds were called active. About 12% were inconclusive and are not listed. The call rests on the fitted dose curve; in most records, active means well fitted cell-killing curve with a large enough effect; inconclusive means small, poorly fitted or top-dose-only effect, or effect the other way; inactive means flat fitted curve, though single readings scatter. The list shows a part of the results.

assay: Cell viability qHTS assay in S16 Pmp22-F2sN cells; settings: S16 Pmp22-F2sN Schwann cells (luciferase reporters placed in the Pmp22 gene) viability, CellTiter-Glo, 24 h; series mostly up to 57.5 µM; activity change, negative = cytotoxicity: at the top concentration; further: nearly all actives have a fitted effect of over 65% in size
Summary of the method: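 S16 Schwann cells carrying the Pmp22-F2sN reporter, seeded in 1536-well format, were exposed to library compounds for 24 h at 37C. Viability was read as CellTiter-Glo luminescence after 15 min at room temperature.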
On the % scale 0 is the no-effect control and ±100 the full control effect.

Row | Structure (SMILES) | activity change, negative = cytotoxicity
1 | CCC(=O)N1CCc2cc(S(=O)(=O)CCC(=O)N3CCN(c4cccc(C)c4)C(C)C3)ccc21 (configuration not stated) | inactive: 7.69%
2 | Cc1ccc(Cl)cc1N1CCN(C(c2ccc(F)cc2)c2nnc(-c3ccccc3)o2)CC1 (configuration not stated) | inactive: 4.19%
3 | O=C(CSc1n[nH]c(-c2ccccc2)n1)N1CCCCC1 | inactive: 3.55%
4 | COC(=O)c1sccc1S(=O)(=O)N1CCN(c2cccc(C)c2C)CC1 | inactive: 24.3%
5 | CCOC(=O)Cn1c(=O)oc2cc(S(=O)(=O)NCc3ccc(F)cc3)ccc21 | inactive: 3.25%
6 | CCOc1ccc(CC(=O)NCCc2csc3nc(-c4ccccc4F)nn23)cc1 | inactive: -22.7%
7 | Cc1noc(/C=C/N(C)C)c1S(=O)(=O)N1CCCC(C(=O)Nc2cccc(F)c2)C1 (configuration not stated) | inactive: 0.692%
8 | COc1ccc2nc(NS(=O)(=O)c3ccc(C)cc3)c(Nc3cc(Cl)ccc3OC)nc2c1 | inactive: -6.05%
9 | O=C(NCC1(c2ccccc2)CCCC1)C(=O)Nc1cccc(C(F)(F)F)c1 | inactive: -11%
10 | CCOc1ccc(CCNC(=O)CSc2cc(=O)n(C)c3ccccc23)cc1OCC | inactive: -10.2%
11 | Cc1ccc(NC(=O)CSc2nc(=O)n(Cc3ccncc3)c3c2CCC3)cc1Cl | inactive: 2.23%
12 | CCOc1cc(CNC(=O)CSc2n[nH]c(-c3ccccc3)n2)cc(OCC)c1OCC | inactive: 3.56%
13 | COC(=O)c1cc(NC2(c3ccccc3)C(=O)c3ccccc3C2=O)cc(C(=O)OC)c1 | inactive: 9.12%
14 | COc1ccc(Nc2ncc(C(=O)Nc3cccc(OC)c3)c3ccccc23)cc1 | inactive: 17.8%
15 | Cc1ccc(Cl)cc1N(C)C(=O)c1sc2nc3n(c(=O)c2c1C)CCCC3 | inactive: -3.81%
16 | COc1ccc(NC(=O)c2ccco2)cc1NC(=O)c1cccc(C)c1OC | inactive: 5.34%
17 | Cc1ccc(NC(=O)NC(C)c2c(-n3cccc3)sc(C)c2C)c(C)c1 (configuration not stated) | inactive: -9.48%
18 | Cc1ccc(SCC(=O)Nc2ccc(O)c(-c3nc4cc(C)ccc4o3)c2)cc1 | inactive: -9.69%
19 | Cc1ccc2c(CN3CCN(c4ccc(Cl)cc4)CC3)cc(=O)oc2c1 | inactive: -6.11%
20 | Cc1ccc(CNC(=O)CCCCCn2c(=O)c3sccc3n(CC(=O)C(C)(C)C)c2=O)cc1 | inactive: -0.877%
21 | O=C(Nc1ccccc1)C1CCN(S(=O)(=O)c2ccc3c(c2)CCCN3C(=O)C2CCC2)CC1 | inactive: -24.1%

Row | Structure (SMILES) | activity change, negative = cytotoxicity
22 | Cc1ccc(Cn2c(SCc3ccc(C(=O)O)cc3)nc3cccnc32)cc1 | inactive: -0.621%
23 | COc1cccc(CC(=O)Nc2c(C(=O)N3CCN(c4ccccc4)CC3)oc3ccccc23)c1 | inactive: 1.62%
24 | O=C(Cn1c(=O)n(Cc2ccco2)c(=O)c2sc3ccccc3c21)Nc1ccc(F)cc1F | inactive: 19.8%
25 | COc1ccc(C(=O)N(Cc2ccco2)Cc2ccccc2F)cc1Cl | inactive: -24.5%
26 | COc1ccc(-c2cc(C(F)(F)F)c(C#N)c(SCC(=O)Nc3cccc(C)c3)n2)cc1 | inactive: -0.72%
27 | CCN(CCCNC(=O)CN1N=C(c2ccccc2)CCC1=O)c1cccc(C)c1 | inactive: -3.74%
28 | CCC(C)n1c(=O)c2sccc2n2c(CCCC(=O)Nc3ccc(F)cc3)nnc12 (configuration not stated) | inactive: 3.84%
29 | CSc1ncc(Cl)c(C(=O)Nc2c(C(=O)c3ccc(C)cc3)oc3ccccc23)n1 | inactive: -10.4%
30 | CCOC(=O)c1ccc(NC(=O)c2noc3c2CCCC3)cc1 | inactive: 1.54%
31 | O=C1NC(NS(=O)(=O)c2ccccc2)(C(F)(F)F)C(=O)N1CCc1ccccc1 (configuration not stated) | inactive: -7.45%
32 | CCOc1ccc(-c2cc3nc(C4CCN(C(=O)OC(C)(C)C)CC4)c(C(=O)Nc4cccc(Cl)c4C)cn3n2)cc1 | inactive: -2.85%
33 | Cn1cc(CCCC(=O)NCc2ccc(F)cc2)c2ccccc21 | inactive: 17.1%
34 | Brc1ccc(-c2cn3cc(Cc4ccccc4)sc3n2)cc1 | inactive: 10.9%
35 | CC1CCN(S(=O)(=O)c2ccc3[nH]ccc3c2)CC1 | inactive: -16.8%
36 | O=S(=O)(NCCc1nnc2ccc(SCc3cccc(Cl)c3)nn12)c1ccccc1 | inactive: -11.9%
37 | COc1ccc(Cn2c(CNC(=O)Cc3ccc(OC)c(OC)c3)nc3cccnc32)cc1 | inactive: 2.16%
38 | CCN(c1ccccc1)c1ncnc2c1cnn2-c1ccc(OC)cc1 | inactive: -1.11%
39 | Cc1ccc2[nH]c3c(=O)n(CC(=O)N4CCN(c5ccccc5F)CC4)ncc3c2c1 | inactive: 16%
40 | Cc1cc(=O)[nH]c2nnc(SCc3cccc(C(F)(F)F)c3)n12 | inactive: -12%
41 | O=C(CSc1nccn1Cc1ccco1)Nc1ccc(OC(F)(F)F)cc1 | inactive: -0.342%
42 | CCOc1ccc(NC(=O)Cn2cc(C(=O)C3CC3)c3ccccc32)cc1 | inactive: 10.2%

Row | Structure (SMILES) | activity change, negative = cytotoxicity
43 | COc1ccc(C(=O)Nc2ccc(-c3nc4cc(C)ccc4o3)c(O)c2)cc1 | inactive: 10.2%
44 | Cc1ccc2c(CNCCc3ccco3)c(C(=O)O)n(Cc3ccc(F)cc3)c2c1 | inactive: 0.133%
45 | CCOc1ccc(CN(CCc2ccc3c(c2)OCO3)Cc2cc(OC)cc(OC)c2)cc1 | inactive: -4.48%
46 | COc1ccc(NC(=O)CCCc2nnc3n(C(C)C)c(=O)c4sccc4n23)cc1Cl | inactive: 2.26%
47 | COc1ccccc1N1CCN(c2ncc3c(n2)CCN(Cc2ccccc2C)C3)CC1 | inactive: 8.39%
48 | Cc1nc2ccc(S(=O)(=O)NCC(=O)NCc3ccc(Cl)cc3)cc2s1 | inactive: 0.769%
49 | Cc1ccc(OCC(=O)OCc2cc(=O)n3ccsc3n2)cc1C | inactive: 2.12%
50 | Cc1nn(-c2ccccc2)c(-n2cccc2)c1C(=O)NCCCN1CCN(c2ccccc2F)CC1 | inactive: -6.88%
51 | COc1ccc(OC(=O)c2cc(-c3ccc4c(c3)OCCO4)on2)cc1 | inactive: 0.952%
52 | Cc1ccc(C)c(NC(=O)CSc2cn(CC(=O)N3CCCCC3)c3ccccc23)c1 | inactive: -19.1%
53 | CCOc1ccc(NC(=O)Cn2c(=O)nc(-c3ccccc3)c3ccccc32)cc1 | inactive: -3.68%
54 | CC(C)c1ccc(NC(=O)Cn2nnc(C(=O)NCCc3ccccc3)c2N)cc1 | inactive: 1.38%
55 | COc1cc(Cl)c(NC(=O)CN2C(=O)c3cccnc3Sc3ccccc32)c(OC)c1 | inactive: 5.45%
56 | COc1ccc(NC(=O)C(Cc2ccccc2)NS(=O)(=O)c2ccc3c(c2)oc(=O)n3C)c(OC)c1 (configuration not stated) | inactive: -14.8%
57 | Cc1cccc2nc(-c3ccc(Cl)s3)c(Nc3ccc4c(c3)OCCO4)n12 | inactive: -5.31%
58 | Cc1nc(N2CCOCC2)c2c(C(=O)N3CCN(c4cccc(C(F)(F)F)c4)CC3)c(C)oc2n1 | inactive: -1.78%
59 | CC(C)Oc1ccc(C(=O)N2CCC(c3nc4ccccc4s3)CC2)cc1 | inactive: 16.7%
60 | Cc1ccc(SCCNC(=O)CN(c2cccc(C)c2C)S(C)(=O)=O)cc1 | inactive: 28.9%
61 | COc1cc(C(=O)Nc2ccc(-c3nc4cc(C)c(C)cc4o3)cc2)cc(OC)c1OC | inactive: 0.51%
62 | CCOC(=O)c1ccc(NC(=O)CCc2c(C)nc3cc(-c4ccc(OC)cc4OC)nn3c2C)cc1 | inactive: 0.634%
